Results published in PMC4336329 (PLoS ONE, 2015).
The campaign covered roughly 310,000 compounds. About 14,000 (4.5%) showed an effect of 50% or more. The effect is printed as a negative number. This is one part of the list.

target: human ether-à-go-go-related gene (hERG) potassium channel (human, UniProt Q12809); experiment: primary screen, population patch clamp on CHO cells stably expressing hERG
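Also: peak tail current of the secondary pulse compared with the same well before compound.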

Chain of human ether-à-go-go-related gene (hERG) potassium channel (Q12809 whole entry, looked up): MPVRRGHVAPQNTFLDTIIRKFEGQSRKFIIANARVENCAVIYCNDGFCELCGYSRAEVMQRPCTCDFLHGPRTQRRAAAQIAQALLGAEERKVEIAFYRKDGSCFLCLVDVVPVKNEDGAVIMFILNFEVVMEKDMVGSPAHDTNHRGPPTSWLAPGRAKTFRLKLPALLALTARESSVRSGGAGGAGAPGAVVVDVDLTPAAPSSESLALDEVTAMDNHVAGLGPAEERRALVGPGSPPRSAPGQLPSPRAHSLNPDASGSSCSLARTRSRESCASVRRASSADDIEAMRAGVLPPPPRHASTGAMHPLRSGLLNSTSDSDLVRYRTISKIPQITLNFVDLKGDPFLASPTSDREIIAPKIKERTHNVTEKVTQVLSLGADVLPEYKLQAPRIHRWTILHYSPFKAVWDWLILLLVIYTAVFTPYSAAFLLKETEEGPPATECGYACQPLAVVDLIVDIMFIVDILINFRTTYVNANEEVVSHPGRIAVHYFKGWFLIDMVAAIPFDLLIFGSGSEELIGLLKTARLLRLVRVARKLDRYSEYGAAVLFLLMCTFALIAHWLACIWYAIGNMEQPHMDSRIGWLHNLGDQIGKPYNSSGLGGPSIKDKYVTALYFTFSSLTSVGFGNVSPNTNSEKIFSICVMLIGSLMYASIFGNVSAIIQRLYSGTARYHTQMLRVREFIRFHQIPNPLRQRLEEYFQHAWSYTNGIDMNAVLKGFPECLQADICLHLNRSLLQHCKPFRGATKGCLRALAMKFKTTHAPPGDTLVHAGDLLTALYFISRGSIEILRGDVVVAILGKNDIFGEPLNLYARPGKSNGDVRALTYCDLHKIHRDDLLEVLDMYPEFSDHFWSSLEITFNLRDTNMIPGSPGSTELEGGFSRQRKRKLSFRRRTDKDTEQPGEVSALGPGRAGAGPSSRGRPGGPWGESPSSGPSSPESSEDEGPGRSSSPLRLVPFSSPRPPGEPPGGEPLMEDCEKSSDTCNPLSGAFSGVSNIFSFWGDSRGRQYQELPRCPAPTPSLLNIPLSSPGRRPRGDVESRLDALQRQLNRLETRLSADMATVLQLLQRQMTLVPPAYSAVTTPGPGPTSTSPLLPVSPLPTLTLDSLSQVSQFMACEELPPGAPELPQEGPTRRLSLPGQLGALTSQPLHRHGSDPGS

| SMILES | hERG current change (%, negative = inhibition) at 10uM [%] |
| --- | --- |
| CSc1cccc(NC(=O)CNC(=O)C2CCCCC2)c1 | 10.1 |
| COc1ccc(NC(=O)/C=C/c2ccc(Br)o2)cn1 | 6.98 |
| COc1ccc(-n2c(C)nc3ccccc3c2=O)c([N+](=O)[O-])c1 | -6.62 |
| COc1cc(NC(=O)c2ccc(F)cc2)c(OC)cc1NC(=O)CN1CCOCC1 | -22.6 |
| CCC(C)N(C(=O)CSc1nc2ccc(OC)cc2[nH]1)C1CCS(=O)(=O)C1 (centres unmarked) | 13.7 |
| O=C(Nc1cccc(O)c1)c1cccc(S(=O)(=O)Nc2cccc(O)c2)c1 | 18.6 |
| C=CCn1c(COc2ccccc2F)nnc1SCC(=O)N1CC(=O)Nc2ccccc21 | -22.6 |
| COc1ccc(C(=O)C2CCCN(Cc3cccn3-c3nccs3)C2)cc1F (centres unmarked) | -83.5 |
| Nc1nonc1C(=O)N/N=C/c1cc2c(cc1Br)OCO2 | 9.34 |
| O=C(Nc1ccccc1N1CCN(C(=O)c2ccc(Cl)cc2)CC1)c1cccnc1 | -73.2 |
| CN(CCO)c1cc(N2CCCCC2)c2nonc2c1[N+](=O)[O-] | 5.59 |
| C/C(N)=C(/C#N)C(=O)CSc1cc(C)c2ccccc2n1 | 6.89 |
| C=CCN1C(=O)NC(c2ccccc2)(C(F)(F)F)S/C1=C(\C#N)c1nnc(N2CCOCC2)n1-c1ccccc1 (centres unmarked) | -19.4 |
| COCCSc1nnc(NC(=O)c2ccc([N+](=O)[O-])cc2)s1 | 27.9 |
| CCCCn1c(SCC(=O)N2CCOCC2)nc2ccccc2c1=O | -68.4 |
| CC(C)(O)C1=NOC(c2ccccc2)C1 (centres unmarked) | 13.3 |
| COc1ccc([C@H]2[C@H](C(=O)OC(C)(C)C)N3N=Cc4ccccc4C3C23C(=O)c2ccccc2C3=O)cc1OC (some centres unmarked) | -3.91 |
| COCCNC(=O)CN(C(=O)CCC(=O)Nc1nccs1)c1ccccc1OC | 9.08 |
| CCOC(=O)c1cc(S(=O)(=O)Nc2cccc(OC)c2)cn1C | -10.9 |
| COc1cc(N=C2C(=O)N3c4c(cccc42)C(C)=CC3(C)C)cc(OC)c1 | 3.85 |
| COc1ccc(N(CC(=O)NC2CC2)S(=O)(=O)c2ccccc2)cc1 | 13 |
| Cc1ccc(-n2c(O)c(C=NCCN3CCNCC3)c(=O)[nH]c2=S)cc1 | 22 |
| Cc1ccc(-c2c(C(=O)N/N=C/c3ccoc3)nnn2-c2nonc2N)cc1 | 10.6 |

| SMILES | hERG current change (%, negative = inhibition) at 10uM [%] |
| --- | --- |
| Cn1nnnc1SCCNS(=O)(=O)c1ccccc1 | 4.96 |
| CC12CCC(C(=O)Nc3ncc([N+](=O)[O-])s3)(OC1=O)C2(C)C (centres unmarked) | 4.95 |
| CCOC(=O)C1(CC2CCCCO2)CCN(Cc2ccc(OC)cc2F)CC1 (centres unmarked) | -54.8 |
| COC(=O)CSc1nnc(-c2ccncc2)o1 | -1.54 |
| Cc1ccc(NS(=O)(=O)c2cc(C(=O)Nc3cccc([N+](=O)[O-])c3)ccc2C)cc1 | 12.1 |
| O=C(COC(=O)c1cccc(S(=O)(=O)N2CCc3ccccc32)c1)Nc1ncc(Cl)cc1Cl | -33 |
| N#Cc1c(C(F)(F)F)cc(-c2ccco2)nc1SCc1ccccn1 | 12.1 |
| CCN(CC)CCCNC(=O)c1cc(-c2cccc(Cl)c2)on1 | -60.7 |
| COc1ccc(C(OC(=O)c2ccco2)C(=O)NCc2ccc(C)cc2)cc1 (centres unmarked) | 7.24 |
| O=C(CSc1ncnc2c1oc1ccccc12)OCc1ccccc1 | 14 |
| CCOC(=O)c1cnc(-c2ccccc2)nc1N(C)C | -1.83 |
| CCc1noc(C)c1C(=O)Nc1ccc(F)c(F)c1 | -15.4 |
| CCCOc1ccc(/C(O)=C2/C(=O)C(=O)N(CCN(C)C)C2c2ccco2)cc1 (centres unmarked) | 10.4 |
| O=C(CC(c1ccccc1)c1ccccc1)Nc1ccncc1 | -8.13 |
| O=S(=O)(NNC(=S)NCC1CCCO1)c1cc(Cl)ccc1Cl (centres unmarked) | 9.42 |
| CCCSc1ccc([C@@H]2[C@@H]3C(=O)N(C)C(=O)[C@@H]3[C@]3(C(=O)OC)CCCCN23)cc1OC.O=C(O)C(F)(F)F | -11.4 |
| COCCNC(=O)c1c(N)n(CCCn2ccnc2)c2nc3ccccc3nc12 | 6.86 |
| C(=C\c1nc(-c2ccncc2)no1)/c1ccccc1 | 2.94 |
| CC(CC(=O)Nc1ccc2c(c1)OCCO2)c1ccccc1 (centres unmarked) | 11.9 |
| O=C(NC(Cc1ccccc1)C(=O)O)/C(=C\c1ccco1)NC(=O)c1ccco1 (centres unmarked) | 13.5 |
| CCS(=O)(=O)N1CCc2nc(-c3ccccc3)sc2C1 | -23.2 |
| CCn1c(O)c(N=NC(=O)Cc2csc(N3CCOCC3)n2)c2ccccc21 | -14.4 |
| Cc1cc(NCc2ccccn2)ccc1Br | -16.5 |

| SMILES | hERG current change (%, negative = inhibition) at 10uM [%] |
| --- | --- |
| CCCNC(=O)NC1C(NC(=O)NCCC)N(C)C(=O)N1C (centres unmarked) | 16.8 |
| COC(=O)c1ccc(COc2cccc(C)c2C)cc1 | -2.45 |
| Cc1ccc(C(=O)O/N=C(\N)c2ccccn2)cc1Cl | 19.1 |
| Cn1c(N)c(C(=O)c2ccc(Cl)cc2)c(=O)n(C)c1=O | -1.07 |
| O=C(NCc1cccc(Cl)c1)C1CCC(=O)N(C2CC2)C1 (centres unmarked) | 5.89 |
| CN(CCC#N)C(=O)CC1(Cc2ccccc2)CCOC(C)(C)C1 (centres unmarked) | -11.6 |
| CN1CC(=O)N(C)c2nc(Br)n(C)c2C1=O | -6.36 |
| O=C(N/N=C/c1ccc(Sc2ccccn2)o1)c1cc2ccccc2cc1O | 12 |
| CCC(=O)OC1c2ccccc2C(=O)N1Cc1ccccc1 (centres unmarked) | -10.3 |
| CC1CCCc2sc3ncn(N)c(=N)c3c21 (centres unmarked) | 6.93 |
| Fc1ccc(-c2cc(C(F)(F)F)nc(-n3cccn3)n2)cc1 | -19.2 |
| C=CCn1c(SCc2c(F)cccc2Cl)nnc1-c1ccco1 | -19.3 |
| CC1CC(C)(C)NC(=S)N1CC(=O)N(C)Cc1ccccc1 (centres unmarked) | -40.1 |
| COc1ccccc1C(=O)NC(=O)COC(=O)CCS(=O)(=O)c1ccc(C)cc1 | -2.87 |
| COc1ccccc1Nc1nn2c(=O)c3ccc(C(=O)N4CCCCC4)cc3nc2s1 | 3.25 |
| CCN(CC)c1ccc(/C=N/n2c(C)nc3ccccc3c2=O)cc1 | -7.73 |
| COC(=O)Nc1ccc(S(=O)(=O)N2CCC(C(=O)N3CCCC(C)C3)CC2)cc1 (centres unmarked) | 36.8 |
| O=C(CN1CCN(CC(=O)Nc2ccc(-c3ccccc3)cc2)CC1)Nc1ccc(F)cc1 | -66.2 |
| O=C(O)c1ccc(N/N=C/c2cccc(F)c2)cc1.O=S(=O)(O)O | 6.86 |
| COCCNC(=S)N1CCC(NC(=O)Nc2ccc(C)cc2)CC1 | 3.92 |
| Cc1cccc(NC(=O)Nc2cccc(F)c2)n1 | 9.39 |
| COc1cc(C(=O)NC(=S)Nc2ccc3c(c2)C(=O)N(C)C3=O)cc(OC)c1OC | 6.17 |
| Cc1ccc(Nc2nnc(SCC(=O)Nc3cccc(S(=O)(=O)N4CCCCC4)c3)s2)cc1 | 9.29 |

| SMILES | hERG current change (%, negative = inhibition) at 10uM [%] |
| --- | --- |
| Cn1cnc2c1c(=O)n(Cc1c(Cl)cccc1Cl)c(=O)n2C | -3.36 |
| Cc1cc(C)nc(N2CCC(C(=O)N3CCN(c4cc(Cl)ccc4C)CC3)CC2)n1 | -5.42 |
| CCn1c(=S)[nH]c2cc(S(=O)(=O)N3CCCCC3)ccc21 | 2.47 |
| O=C(N/N=C/c1ccccc1OC(F)F)c1cc(-c2ccncc2)nc2ccccc12 | 8.54 |
| Cc1ccc(N2C(=O)C(CC(=O)Nc3cccc(F)c3)N(C3CC3)C2=O)cc1 (centres unmarked) | -7.13 |
| COc1cccc(C=Nc2ccc(C)c(F)c2)c1O | 8.86 |
| Cc1ccc(NC(=O)CS(=O)CC(=O)N(c2ccccc2F)C(C)C(=O)NC2CCCC2)cc1 (centres unmarked) | -0.926 |
| CCn1c(-c2ccccc2)c(C(=O)O)c2ccccc21 | 9.91 |
| Cc1cc(NC(=O)COC(=O)[C@@H](NS(=O)(=O)c2ccc(Br)cc2)C(C)C)no1 | -5.39 |
| CCOC(=O)C1CCCCN1S(=O)(=O)c1ccc2c(c1)CC(C)N2C(=O)C1CCC1 (centres unmarked) | -16.8 |
| COCCCNC(=O)CCC(=O)NNc1nc2ccccc2c2nc(C)nn12 | 19.3 |
| Cc1c(Cl)cccc1NC(=O)Cn1cc(C(F)(F)F)cc(Cl)c1=O | 5.91 |
| COc1ccc(OC)c(C(O)c2coc3ccc(O)c(CN(C)C)c23)c1 (centres unmarked) | -17 |
| Clc1ccccc1CN1CCSCC1 | 8.01 |
| C=CCc1cc(S(=O)(=O)c2ccc(O)c(CC=C)c2)ccc1O | 7.22 |
| Cc1ccc[n+](Cc2ccc([N+](=O)[O-])cc2)c1.[Br-] | 27.1 |
| O=C(NCc1cccc(F)c1F)C1CCC(=O)N(C2CCCCCC2)C1 (centres unmarked) | -5.68 |
| CCc1nnc(NC(=O)Cc2ccc(OC)c(OC)c2)s1 | 13.6 |
| Cn1c(COc2ccccc2Br)nc2ccccc21 | 7.18 |
| C/C(CC(=O)NC1C2CC3CC(C2)CC1C3)=N\NC(=O)Cc1cccs1 (centres unmarked) | 3.72 |
